Laboratory results: a collection of fitness landscapes (doi:10.1126/science.1257360)
Some of the results follow.

B1: PhoQ; a variant is named by its letters at X, in order, P23837 (parent)
chain: MKKLLRLFFPLSLRVRFLLATAAVVLVLSLAYGMVALIGYSVSFDKTTFRLLRGESNLFYTLAKWENNKLHVELPENIDKQSPTMTLIYDENGQLLWAQRDVPWLMKMIQPDWLKSNGFHEIEADVNDTSLLLSGDHSIQQQLQEVREDDDDAEMTHSVAVNVYPATSRMPKLTIVVVDTIPVELKSSYMVWSWFIYVLSANLLLVIPLLWVAAWWSLRPIEALAKEVRELEEHNRELLNPATTRELTSLVRNLNRLLKSERERYDKYRTTLTDLTHSLKTPLXXLQXXLRSLRSEKMSVSDAEPVMLEQISRISQQIGYYLHRASMRGGTLLSRELHPVAPLLDNLTSALNKVYQRKGVNISLDISPEISFVGEQNDFVEVMGNVLDNACKYCLEFVEISARQTDEHLYIVVEDDGPGIPLSKREVIFDRGQRVDTLRPGQGVGLAVAREITEQYEGKIVAGESMLGGARMEVIFGRQHSAPKDE

Variants of: B1
Experiment: enrichment ratio after two sorts for PhoP signalling (ratio (wild type AVST 3.29)); higher = more functional
Conditions: with PhoP (E. coli)

| Variant | enrichment ratio |
| --- | --- |
| WEFR | ≤ 0.25 |
| FNQL | ≤ 0.25 |
| ELAQ | ≤ 0.25 |
| FLPS | ≤ 0.25 |
| LYKL | ≤ 0.25 |
| PNQI | ≤ 0.25 |
| MMLL | 1.58 |
| GQWG | ≤ 0.25 |
| PWNL | ≤ 0.25 |
| FKLY | ≤ 0.25 |
| LQCE | ≤ 0.25 |
| RCCY | ≤ 0.25 |
| LYYI | ≤ 0.25 |
| ERGG | ≤ 0.25 |
| GRVH | ≤ 0.25 |
| VPCG | ≤ 0.25 |
| KYLE | ≤ 0.25 |
| HQRN | ≤ 0.25 |
| YTID | ≤ 0.25 |
| LTQF | ≤ 0.25 |
| HQSW | ≤ 0.25 |
| EFHS | ≤ 0.25 |
| ESGG | ≤ 0.25 |
| NDYT | ≤ 0.25 |

| Variant | enrichment ratio |
| --- | --- |
| KQRA | ≤ 0.25 |
| TSRN | ≤ 0.25 |
| APNE | ≤ 0.25 |
| FMPL | ≤ 0.25 |
| PIND | ≤ 0.25 |
| KCMG | ≤ 0.25 |
| WEIH | ≤ 0.25 |
| IPHY | ≤ 0.25 |
| IISW | ≤ 0.25 |
| PATG | ≤ 0.25 |
| SLYN | ≤ 0.25 |
| VIFP | ≤ 0.25 |
| VNQM | ≤ 0.25 |
| YSEF | ≤ 0.25 |
| DVDC | ≤ 0.25 |
| PDNM | ≤ 0.25 |
| AKQD | ≤ 0.25 |
| PDQC | ≤ 0.25 |
| RGQT | ≤ 0.25 |
| NCQP | ≤ 0.25 |
| AKWC | ≤ 0.25 |
| LRPG | ≤ 0.25 |
| MQWD | ≤ 0.25 |
| TAAP | ≤ 0.25 |

| Variant | enrichment ratio |
| --- | --- |
| LNHG | ≤ 0.25 |
| NRNV | ≤ 0.25 |
| GWKK | ≤ 0.25 |
| SAKL | ≤ 0.25 |
| KHEI | ≤ 0.25 |
| TMDV | ≤ 0.25 |
| QPIV | ≤ 0.25 |
| MLSW | ≤ 0.25 |
| EMAK | ≤ 0.25 |
| FFMN | ≤ 0.25 |
| RGNL | ≤ 0.25 |
| TYGY | ≤ 0.25 |
| IGTI | ≤ 0.25 |
| TAIL | ≤ 0.25 |
| RGRI | ≤ 0.25 |
| GGTQ | ≤ 0.25 |
| WFKV | ≤ 0.25 |
| KANP | ≤ 0.25 |
| SPSM | ≤ 0.25 |
| VVCC | ≤ 0.25 |
| VTYQ | ≤ 0.25 |
| YICF | 1.32 |
| WCWG | ≤ 0.25 |
| ANLV | 14.1 |

| Variant | enrichment ratio |
| --- | --- |
| TGSN | 8.1 |
| EPVN | ≤ 0.25 |
| PNGM | ≤ 0.25 |
| PWPR | ≤ 0.25 |
| NIYI | ≤ 0.25 |
| FHLP | ≤ 0.25 |
| SHVW | ≤ 0.25 |
| SVTY | 7.86 |
| MGYW | ≤ 0.25 |
| PYTD | ≤ 0.25 |
| PSSI | ≤ 0.25 |
| NGAK | ≤ 0.25 |
| VHMM | ≤ 0.25 |
| SFDC | ≤ 0.25 |
| DGWN | ≤ 0.25 |
| TYVP | ≤ 0.25 |
| YRMP | 0.643 |
| SPNS | ≤ 0.25 |
| NLQF | ≤ 0.25 |
| PQID | ≤ 0.25 |
| NNLF | ≤ 0.25 |
| SYAV | ≤ 0.25 |
| GWHP | ≤ 0.25 |
| KFYG | ≤ 0.25 |

| Variant | enrichment ratio |
| --- | --- |
| KHSE | ≤ 0.25 |
| VDSY | ≤ 0.25 |
| EHQQ | ≤ 0.25 |
| NIIQ | ≤ 0.25 |
| NVAP | ≤ 0.25 |
| HKMQ | ≤ 0.25 |
| MEAF | ≤ 0.25 |
| FHHM | ≤ 0.25 |
| WHHL | ≤ 0.25 |
| ASHW | ≤ 0.25 |
| VMTM | ≤ 0.25 |
| HQPT | ≤ 0.25 |
| FHAW | ≤ 0.25 |
| FEMK | ≤ 0.25 |
| NWPW | ≤ 0.25 |
| QCKN | ≤ 0.25 |
| SVPH | ≤ 0.25 |
| MIYL | 1.16 |
| LIGG | ≤ 0.25 |
| IMIV | ≤ 0.25 |
| LQTL | ≤ 0.25 |
| SQDW | ≤ 0.25 |
| RKHD | ≤ 0.25 |
| LIND | ≤ 0.25 |

| Variant | enrichment ratio |
| --- | --- |
| IHVR | ≤ 0.25 |
| YPRI | ≤ 0.25 |
| LQAE | ≤ 0.25 |
| DWDS | ≤ 0.25 |
| FCDD | ≤ 0.25 |
| FEID | ≤ 0.25 |
| IDCS | ≤ 0.25 |
| LHWL | ≤ 0.25 |
| MPVS | ≤ 0.25 |
| IYSP | ≤ 0.25 |
| TVPT | ≤ 0.25 |
| GDSS | ≤ 0.25 |
| IVMP | ≤ 0.25 |
| DAQN | ≤ 0.25 |
| PMCY | ≤ 0.25 |
| YHPI | ≤ 0.25 |
| EKLV | ≤ 0.25 |
| NGTH | ≤ 0.25 |
| NCPF | ≤ 0.25 |
| HYSD | ≤ 0.25 |
| FMSK | ≤ 0.25 |
| IWSV | ≤ 0.25 |
| RWYK | ≤ 0.25 |
| YYAQ | ≤ 0.25 |

| Variant | enrichment ratio |
| --- | --- |
| SPSS | ≤ 0.25 |
| IWCR | ≤ 0.25 |
| YEQC | ≤ 0.25 |
| SHAI | ≤ 0.25 |
| EWLM | ≤ 0.25 |
| GTEC | ≤ 0.25 |
| STEW | ≤ 0.25 |
| GQCV | 5.95 |
| RTHY | ≤ 0.25 |
| HATV | ≤ 0.25 |
| IPPF | ≤ 0.25 |
| FQFK | ≤ 0.25 |
| SLFC | ≤ 0.25 |
| IECL | ≤ 0.25 |
| SMFM | ≤ 0.25 |
| PSNC | ≤ 0.25 |
| MRMK | ≤ 0.25 |
| LVGG | ≤ 0.25 |
| FDIF | ≤ 0.25 |
| SGFC | ≤ 0.25 |
| PVLY | ≤ 0.25 |
| KTEF | ≤ 0.25 |
| ICAH | ≤ 0.25 |
| IFTP | ≤ 0.25 |

| Variant | enrichment ratio |
| --- | --- |
| VETR | ≤ 0.25 |
| DRNC | ≤ 0.25 |
| WGQP | ≤ 0.25 |
| HRWQ | ≤ 0.25 |
| MILD | ≤ 0.25 |
| TCKM | ≤ 0.25 |
| SRRS | ≤ 0.25 |
| ADLT | 11.3 |
| TTRQ | ≤ 0.25 |
| EMEN | ≤ 0.25 |
| SGIA | 10.4 |
| PQTR | ≤ 0.25 |
| WPPG | ≤ 0.25 |
| TWQM | ≤ 0.25 |
| SKDV | ≤ 0.25 |
| DFFP | ≤ 0.25 |
| RCRF | ≤ 0.25 |
| KVKE | ≤ 0.25 |
| WKRT | ≤ 0.25 |
| WTMD | ≤ 0.25 |
| SPFC | ≤ 0.25 |
| NWFG | ≤ 0.25 |
| IYAF | ≤ 0.25 |
| LLHV | ≤ 0.25 |

| Variant | enrichment ratio |
| --- | --- |
| DPEF | ≤ 0.25 |
| GFYS | ≤ 0.25 |
| QFTW | ≤ 0.25 |
| TLFS | ≤ 0.25 |
| FNID | ≤ 0.25 |
| WHGH | ≤ 0.25 |
| EGWM | ≤ 0.25 |
| TEDG | ≤ 0.25 |
| TIVC | ≤ 0.25 |
| VPRD | ≤ 0.25 |
| NLHV | ≤ 0.25 |
| AVCL | 10.2 |
| LEEM | ≤ 0.25 |
| ITPT | ≤ 0.25 |
| PQYT | ≤ 0.25 |
| FMDW | ≤ 0.25 |
| EPWH | ≤ 0.25 |
| VNAV | 1.08 |
| EEEY | ≤ 0.25 |
| LQDN | ≤ 0.25 |
| HEIM | ≤ 0.25 |
| MEDC | ≤ 0.25 |
| NMCI | ≤ 0.25 |
| SIAC | 13 |

| Variant | enrichment ratio |
| --- | --- |
| GWHY | ≤ 0.25 |
| SEAQ | 13.7 |
| DPHE | ≤ 0.25 |
| GSDG | ≤ 0.25 |
| NKCR | ≤ 0.25 |
| RVWV | ≤ 0.25 |
| FCTC | ≤ 0.25 |
| WVLG | ≤ 0.25 |
| FAGV | ≤ 0.25 |
| IHDF | ≤ 0.25 |
| IMQW | ≤ 0.25 |
| AHYY | ≤ 0.25 |
| FHEF | ≤ 0.25 |
| QEQQ | ≤ 0.25 |
| HQMM | ≤ 0.25 |
| QQHR | ≤ 0.25 |
| QRPD | ≤ 0.25 |
| VGLW | ≤ 0.25 |
| VVRT | ≤ 0.25 |
| MTNG | ≤ 0.25 |
| TMDE | ≤ 0.25 |
| STLV | 15.4 |
| EILG | ≤ 0.25 |
| HHKY | ≤ 0.25 |

| Variant | enrichment ratio |
| --- | --- |
| MYCN | ≤ 0.25 |
| RMVD | ≤ 0.25 |
| VLCY | ≤ 0.25 |
| VDQG | ≤ 0.25 |
| QYIN | ≤ 0.25 |
| TKHH | ≤ 0.25 |
| WVCW | ≤ 0.25 |
| DCFW | ≤ 0.25 |
| WHKT | ≤ 0.25 |
| VMSM | ≤ 0.25 |
| EKIH | ≤ 0.25 |
| PSGM | ≤ 0.25 |
| QPDR | ≤ 0.25 |
| DQYV | ≤ 0.25 |
| KQPI | ≤ 0.25 |
| HFLI | ≤ 0.25 |
| ECKL | ≤ 0.25 |
| DFLD | ≤ 0.25 |
| MKCQ | ≤ 0.25 |
| GGAR | ≤ 0.25 |
| FSDP | ≤ 0.25 |
| MERT | ≤ 0.25 |
| VWRM | ≤ 0.25 |
| FLSS | ≤ 0.25 |

| Variant | enrichment ratio |
| --- | --- |
| SKLA | 8.7 |
| DVDA | ≤ 0.25 |
| PNGN | ≤ 0.25 |
| MDDW | ≤ 0.25 |
| MHFG | ≤ 0.25 |
| WIIL | ≤ 0.25 |
| SLPP | ≤ 0.25 |
| EEGG | ≤ 0.25 |
| WKLA | ≤ 0.25 |
| GNRD | ≤ 0.25 |
| CFVN | ≤ 0.25 |
| YVVV | ≤ 0.25 |
| KNMW | ≤ 0.25 |
| VQIA | ≤ 0.25 |
| QLKD | ≤ 0.25 |
| VWPQ | ≤ 0.25 |
| FLSM | ≤ 0.25 |
| HREN | ≤ 0.25 |
| NYWE | ≤ 0.25 |
| MWVR | ≤ 0.25 |
| KGTA | ≤ 0.25 |
| LCFS | ≤ 0.25 |
| RVPT | ≤ 0.25 |
| IGRA | ≤ 0.25 |

| Variant | enrichment ratio |
| --- | --- |
| QIFF | ≤ 0.25 |
| QIVA | ≤ 0.25 |
| FPSR | ≤ 0.25 |
| ENVL | ≤ 0.25 |
| VRIG | ≤ 0.25 |
| RLMF | ≤ 0.25 |
| ECIR | ≤ 0.25 |
| EKLL | ≤ 0.25 |
| QMYA | ≤ 0.25 |
| NFEH | ≤ 0.25 |
| ITLI | 8.76 |
| QMLC | ≤ 0.25 |
| SDIP | 0.899 |
| IMGF | ≤ 0.25 |
| SDKN | ≤ 0.25 |
| EKDS | ≤ 0.25 |
| ASSA | 8.93 |
| RYDD | ≤ 0.25 |
